In PubChem BioAssay AID488969 (Vanderbilt High Throughput Screening Facility, 2010) one finds z-score data, which are given here for 70 molecules.

Whole data set: some 110,000 compounds, median “z-score” near -0.1, cut for the highest 2% near 2. The list shows a part of the results. Active and inactive are the calls of the source.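 Rule for the calls: active = z-score in the third read window above 3 or below -3; inactive = the rest.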 Residues, ends and D or L forms follow the SMILES beside them. *: point of attachment. Boc = CC(C)(C)OC(=O)*

The target in this experiment is Metabotropic glutamate receptor 8 (Rattus norvegicus) (UniProt P70579). Description: mGluR8 Gi/Go-coupled signaling modulation – cell-based, rat, thallium flux, HTS, primary screen (AID 488969). As to conditions: HEK293 rat mGluR8, GIRK (G protein-gated inwardly rectifying potassium channel) thallium flux, FluoZin2; at 10 µM; stronger effect = higher value; submaximal glutamate (EC20) added with thallium.
UniProt P70579, sequence (P70579 whole entry, looked up): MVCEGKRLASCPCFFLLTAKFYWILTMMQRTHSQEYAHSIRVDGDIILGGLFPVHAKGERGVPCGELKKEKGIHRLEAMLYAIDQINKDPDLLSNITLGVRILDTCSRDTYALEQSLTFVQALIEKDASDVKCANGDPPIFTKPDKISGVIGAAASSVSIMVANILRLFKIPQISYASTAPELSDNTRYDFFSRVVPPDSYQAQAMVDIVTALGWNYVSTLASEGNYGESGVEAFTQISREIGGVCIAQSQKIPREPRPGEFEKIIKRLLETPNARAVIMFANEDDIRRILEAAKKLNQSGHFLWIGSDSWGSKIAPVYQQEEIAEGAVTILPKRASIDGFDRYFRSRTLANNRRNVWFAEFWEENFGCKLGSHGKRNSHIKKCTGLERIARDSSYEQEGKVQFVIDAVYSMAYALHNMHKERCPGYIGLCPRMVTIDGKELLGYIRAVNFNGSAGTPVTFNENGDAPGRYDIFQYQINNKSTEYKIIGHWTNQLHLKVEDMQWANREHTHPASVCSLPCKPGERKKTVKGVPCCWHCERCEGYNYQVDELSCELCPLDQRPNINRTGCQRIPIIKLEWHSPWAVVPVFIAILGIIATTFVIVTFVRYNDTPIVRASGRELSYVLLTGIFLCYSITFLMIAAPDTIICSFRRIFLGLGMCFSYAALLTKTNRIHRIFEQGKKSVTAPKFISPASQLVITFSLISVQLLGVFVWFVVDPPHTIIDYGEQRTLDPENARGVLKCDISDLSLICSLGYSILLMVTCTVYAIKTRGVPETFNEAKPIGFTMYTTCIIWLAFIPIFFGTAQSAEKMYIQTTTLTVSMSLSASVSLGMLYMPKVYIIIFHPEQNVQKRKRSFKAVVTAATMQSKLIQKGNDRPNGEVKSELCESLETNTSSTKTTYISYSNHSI
Consider `O=C(CSCc1ccccc1)N=Nc1c(O)[nH]c2ccccc12`, for which the z-score was active: 6.08.

On to `COc1ccc(/C=N\NC(=O)CNC(=O)C(c2ccccc2)c2ccccc2)cc1[N+](=O)[O-]`, for which the z-score is -0.12.

Molecule `CCOC(=O)c1ccc(N2CSC3=C(C#N)C(c4ccc(OC)cc4OC)CC(=O)N3C2)cc1` (stereo not given) had a z-score of -0.467.

`COc1ccccc1NS(=O)(=O)c1cc(NC(=O)Nc2cccc(C)c2)ccc1N1CCCCC1` came in with a z-score of -0.24.

`COc1ccc(NS(=O)(=O)c2c(C)n(C)c(=O)n(C)c2=O)cc1OC` gave a z-score of -0.0428.

On to `COc1ccc(CCN2C(=O)c3cccnc3C2=O)cc1OC`, for which the z-score worked out at 0.487.

`Cn1c(=O)c2c(nc(SCCN3CCCCC3)n2C)n(C)c1=O` showed a z-score of -0.15.

In turn, `Cc1csc(NC(=O)c2ccc3c(=O)n4c(nc3c2)CCCCC4)n1` came in with a z-score of -0.227.

Molecule `CCOC(=O)c1c(NC(=O)N/N=C/c2ccccc2OCC)sc(C(C)=O)c1C` displayed a z-score of 0.0659.

`Cc1cc(NC(=O)CCOc2ccccc2)no1` displayed a z-score of 0.484.

`CCN(CC)C(=O)c1ccc(C)c(Br)c1` registered a z-score of -0.37.

`CCc1nc2sc3c(c2c(=O)o1)CCCC3` registered a z-score of 0.544.

`c1ccc2c(c1)ncn2CCCOc1ccc2c(c1)CCC2` displayed a z-score of -0.337.

On to `CC(C)NS(=O)(=O)c1ccc(OCC(=O)N2CCCC2)c(Cl)c1`, for which the z-score is -0.142.

On to `CCn1c(CCNC(=O)c2cccs2)nnc1SCC(=O)c1ccc(OC)cc1`, for which the z-score is -0.211.

As to `Cc1ccc(SCc2cc(=O)[nH]c(N3CCN(C)CC3)n2)cc1`, the z-score was 0.0023.

As to `N#C/C(=C/c1ccc(-c2ccc(C(=O)O)c(Cl)c2)o1)C(=O)NCC1CCCO1` (stereo not given), the z-score stood at 0.533.

In the case of `CN(C=C1C(=O)CC(C)(C)CC1=O)CCN1CCNCC1`, the z-score came to 0.255.

The molecule `O=C(COc1ccccc1)Nc1ncc2c(n1)CCCC2=O` returned a z-score of -0.118.

Turning to `COc1ccc(C2=NOC(C(=O)Nc3c(C)n(C)n(-c4ccccc4)c3=O)C2)cc1` (stereo not given), the z-score is -0.27.

As for `CC1CN(C(=O)CN2C(=O)c3ccccc3S2(=O)=O)CC(C)O1` (stereo not given), the z-score was 0.257.

`CC(NCc1ccc(N(C)C)cc1)C1CC2CCC1C2` (stereo not given): the z-score amounted to 0.634.

Regarding `CCOc1c2ccc(C(=O)NCCCCc3ccccc3)cc2nn1CC`, the z-score is -0.333.

In turn, `Cc1nc(NC(=O)/C=C/c2ccc(F)cc2)sc1C(=O)N(C)C` gave a z-score of -0.464.

`O=C(Nc1ccc(N2CCN(C(=O)c3ccc(Cl)cc3)CC2)cc1)c1ccc(Br)o1` had a z-score of -0.401.

In turn, `CCc1[nH]c(=O)c(C#N)c2c1CSC(C)(C)C2` had a z-score of -0.436.

Regarding `NS(=O)(=O)c1ccc(N/N=C2/CCCCC2C2CCCCC2)c([N+](=O)[O-])c1` (stereo not given), the z-score was -0.414.

With `CC(=O)c1sc(N)c(C(=O)OC(C)C)c1C`, the z-score was -0.043.

Molecule `COC(=O)C(C(=O)OC)=C(/C=C/N(C)C)N(C)C` had a z-score of 0.0749.

In turn, `O=C(Nc1nnc(COc2ccc(Cl)cc2)s1)c1cccs1` displayed a z-score of 0.129.

As for `O=C(Cn1c(CC(=O)N2CCOCC2)nc2ccccc21)Nc1ccc2c(c1)OC(F)(F)O2`, the z-score is 1.15.

The molecule `O=C(O)CC(C(=O)NC1CCCCC1)C1CCCO1` (stereo not given) registered a z-score of 0.524.

In turn, `CC(=O)Nc1ccc(NC(=O)C(C)OC(=O)C2CC3C=CC2C3)cc1` (stereo not given) came in with a z-score of -0.216.

As to `O=S(=O)(Nc1cc(Cl)ccc1N1CCCCC1)c1cccs1`, the z-score was active: 7.03.

In turn, `CC(=O)Nc1ccc(S(=O)(=O)N=S(C)(C)=O)cc1` yielded a z-score of 0.711.

`O=C(CSc1nnc(Cc2cc(=O)[nH]c(=O)[nH]2)n1-c1ccccc1)N1CCCC1` had a z-score of 0.301.

For `CCOC(=O)c1cc(C(=O)OCC)cc(-n2c(C)cc(C(=O)CN3CCOCC3)c2C)c1`, the z-score is -1.47.

For `O=C(NNc1cccc(Cl)n1)c1cccnc1Cl`, the z-score is -0.00142.

Molecule `CCc1ccc(NC(=O)c2noc3c2CCc2ccccc2-3)cc1` returned a z-score of 0.0778.

`CC1C2=C(CCCC2=O)N(c2cccc3ccccc23)C2=C1C(=O)CCC2` showed a z-score of -0.482.

With `O=S(=O)(c1cccs1)N1CCN(C/C=C/c2ccccc2)CC1`, the z-score is -0.24.

`CC(C)CCNC(=O)CC1Nc2c3ccccc3nc(=S)n2C1=O` (stereo not given) came in with a z-score of 0.212.

Turning to `O=C(Cc1cccs1)Nc1nnc(SCc2ccc(Br)cc2)s1`, the z-score came out at 0.299.

Consider `Cc1ccc(N2C(=O)C3C(c4ccccc4)N4CCCN4C3(C)C2=O)cc1` (stereo not given), for which the z-score was -0.0168.

In the case of `CC(C)(C)c1csc(NC2=NS(=O)(=O)c3ccccc32)n1`, the z-score came to 0.285.

As to `O=C(COc1ccccc1Cl)Nc1cnn(Cc2ccccc2)c1`, the z-score amounted to 1.06.

`Cc1cccc(NC(=O)c2cccs2)n1` returned a z-score of 0.965.

Regarding `Cc1ccc(Nc2cc(C)nc3ncnn23)c(Cl)c1`, the z-score was -0.106.

Consider `CCOC(=O)C1CCCN(C(=O)CCn2nc(-c3ccccc3)ccc2=O)C1` (stereo not given), for which the z-score was 1.49.

`COc1ccc2[nH]c(=O)c(CN(Cc3ccc4c(c3)OCO4)C(C)=O)cc2c1` yielded a z-score of 0.313.

Molecule `O=C(NCCOc1ccccc1)c1cncc(Br)c1` displayed a z-score of 0.491.

`CCC(=O)NCCc1nc2cc(NC(=O)c3ccc(OC)cc3)ccc2n1C`: the z-score is -0.0389.

`CCOc1ccccc1Nc1ncccc1C(=O)O` displayed a z-score of 0.109.

As for `COc1cc(SC#N)ccc1N=Cc1c(C)[nH]n(-c2ccc(C)cc2)c1=O`, the z-score came out at 0.469.

The molecule `CS(=O)(=O)N(CC(=O)NC1CCCCCC1)Cc1ccc(Cl)cc1` gave a z-score of 0.0818.

In turn, `O=C(O)c1cnn(-c2ccccc2)c1-n1cccc1` had a z-score of -1.69.

As to `O=C(NCc1ccc2c(c1)OCO2)C1CCCN(S(=O)(=O)c2cccnc2)C1` (stereo not given), the z-score came to 0.0477.

Molecule `COc1ccc(CCNC(=O)C(=O)NCc2ccc(C)cc2)cc1OC` registered a z-score of -0.0887.

`CCOC(=O)N1CCN(C(=O)CCSc2ccccc2)CC1`: the z-score was found to be 0.0832.

The molecule `O=C(O)c1ccc2c(=O)[nH]c(CN3CCOCC3)nc2c1` showed a z-score of 0.0476.

`CN(C)/C(CN1CCCCC1)=C1\N=C(c2ccccc2)OC1=O` returned a z-score of 0.195.

The molecule `Fc1ccc(-c2nc3ccccc3c3nc4ccccc4n23)cc1` showed a z-score of -0.798.

On to `Cc1ccc(S(=O)(=O)NC(CC(=O)NCc2ccco2)c2ccco2)cc1` (stereo not given), for which the z-score was 0.203.

`C/C=C/c1ccc(OCCCNC)c(OC)c1`: the z-score was found to be 0.0523.

Regarding `CCOC(=O)C(Cc1ccc(O)cc1)NC(=O)CNC(=O)C(CC(C)C)NC(=O)OC(C)(C)C` (stereo not drawn) (Boc-Leu-Gly-Tyr-OEt; configuration not given here), the z-score amounted to 0.106.

In the case of `CC(=O)OCc1cc(=O)n(C)c(=O)n1C`, the z-score was -0.366.

`COCCCNC(=O)CCn1c(=O)c2ccccc2n(CC(=O)Nc2c(C)cccc2C)c1=O` showed a z-score of -0.371.

On to `CCn1c(SCC(=O)NCCc2ccc(F)cc2)nnc1-c1cccs1`, for which the z-score is -0.241.

`Cc1ccc(NC(=O)CN(C)C(=O)CSc2nc3ccccc3c(=O)n2Cc2ccco2)cc1` returned a z-score of -0.0496.

The molecule `Cc1c(N2C(=O)c3ccc(Br)cc3C2=O)c(=O)n(-c2ccccc2)n1C` returned a z-score of 0.29.
